Assay results taken from paper PMC6919601, “Identification of Plasmodium dipeptidyl aminopeptidase allosteric inhibitors by high throughput screening” (PLoS ONE, 2019).
The whole screen tested about 110,000 compounds, of which about 230 (0.21%) showed an effect of 50% or more. The list shows a part of the results.

biological target: DPAP1 (Plasmodium falciparum, UniProt Q8IIJ9); assay: primary screen, percent inhibition; read by cleavage of a fluorogenic dipeptide substrate; higher = more effect of the substance; parameters: species or system P. falciparum D10 trophozoite lysates; single well
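Also: 30 min substrate incubation versus DMSO and 10 µM JCP410 controls.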

DPAP1, sequence (Q8IIJ9 whole entry, looked up): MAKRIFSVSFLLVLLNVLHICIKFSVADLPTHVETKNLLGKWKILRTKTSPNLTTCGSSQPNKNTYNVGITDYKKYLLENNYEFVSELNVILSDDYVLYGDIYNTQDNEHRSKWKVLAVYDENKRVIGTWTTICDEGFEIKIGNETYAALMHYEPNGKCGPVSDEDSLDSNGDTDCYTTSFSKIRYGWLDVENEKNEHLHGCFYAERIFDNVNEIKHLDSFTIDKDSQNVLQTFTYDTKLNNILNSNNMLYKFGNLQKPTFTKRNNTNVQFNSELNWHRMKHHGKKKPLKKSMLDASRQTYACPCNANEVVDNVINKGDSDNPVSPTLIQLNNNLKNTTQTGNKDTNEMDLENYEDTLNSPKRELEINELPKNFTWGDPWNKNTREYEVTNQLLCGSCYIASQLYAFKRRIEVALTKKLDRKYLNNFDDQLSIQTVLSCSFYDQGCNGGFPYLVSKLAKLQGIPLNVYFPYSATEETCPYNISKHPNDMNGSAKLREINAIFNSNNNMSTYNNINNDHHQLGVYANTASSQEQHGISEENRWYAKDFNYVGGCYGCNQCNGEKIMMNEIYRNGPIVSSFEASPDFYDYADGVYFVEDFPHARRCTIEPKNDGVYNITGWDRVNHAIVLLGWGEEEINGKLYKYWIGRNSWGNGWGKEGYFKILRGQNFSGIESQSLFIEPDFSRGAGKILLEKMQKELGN

Compound	% Inhibition @ 10 uM [%]
CCc1nnc(NC(=O)CCCOc2ccc(C(C)(C)C)cc2)s1	-13.1
Cc1ccc(-c2cc(-c3ccccc3)nc(N3CCN(C)CC3)n2)cc1	-3.27
C=CCNC(=O)c1cnn2c(C)c(Cc3ccccc3)c(C)nc12	-0.733
CC(C)Cn1cc(NC(=O)NC2CCCc3ccccc32)c2ccccc2c1=O (centres unmarked)	2.09
CCCCc1ccc(-c2ccc(C)cc2O)nc1	-2.55
CCOc1ccc(C(=O)Nc2nc(C)c(C(=O)N(C)C)s2)cc1	9.11
CC(=O)c1cccc(N2C(=O)C3C4C=CC(C4)C3(C)C2=O)c1 (centres unmarked)	4.12
Cc1ccc(CNC(=O)CCCn2ncn3c(cc4occc43)c2=O)cc1	-3.79
CC(=O)Nc1[nH]c(-c2ccccc2)cc1C(C)=O	-8.03
O=C(Cn1c(-c2ccccc2)c[n+]2ccsc12)c1ccc(Br)cc1	-6.2
COC(=O)c1sccc1S(=O)(=O)N1CCC(C(N)=O)CC1	-1.74
CCS(=O)(=O)N1CCC(c2nnnn2-c2ccc(C)cc2)CC1	13.8
CC(C)C(=O)N1CCN(c2ccccc2NC(=O)c2cccc3ccccc23)CC1	-1.44
Cc1ccc(OCC(=O)Nc2nnc(S(=O)(=O)NCC3CCCO3)s2)cc1 (centres unmarked)	-3.51
O=C(Nc1ccccc1OC(F)F)C12CC3CC(C1)CC(n1cncn1)(C3)C2	2.08
Cc1ccccc1OCC(=O)Nc1cccc2cccnc12	5.66
Cc1cc(NC(=O)CSc2cn(CC(=O)N3CCCCCC3)c3ccccc23)no1	-1.39
O=C(Cn1cc(C(=O)C(F)(F)F)c2ccccc21)N1CCCCC1	0.475
CCC(Oc1ccccc1)C(=O)Nc1nn2c(-c3ccccc3)nnc2s1 (centres unmarked)	3.92
CCOC(=O)N1CCN(C(=O)/C(=C\c2cccs2)NC(=O)c2cccs2)CC1	-4.68
Cc1cc(C)nc(SC(=O)c2ccc(Cl)cc2Cl)n1	-5.13
Cc1cc(C)cc(N(CC(=O)N2CCC(C)CC2)S(=O)(=O)c2ccccc2)c1	-4.7
CCCC(=O)Nc1ccc2c(c1)C(=O)N(CCC(=O)O)C2=O	-0.318
Cc1cccc2c(O)c(NC(=O)NCCCO)cnc12	0.401
Cc1nc(=O)c(-c2ccccc2)c(C)n1-c1ccccc1O	-1.66
O=C(CCn1cccn1)NCc1ccc(F)cc1	-3.22

Compound	% Inhibition @ 10 uM [%]
CC(=O)c1c(C)nc2n(Cc3ccccc3)c3ccccc3n12	-1.5
Cc1ccc(C)c(OCC(=O)NCc2ccco2)c1C	-0.95
COc1ccccc1C(=O)N/C(=C\c1ccc(Br)cc1)C(=O)O	-1.19
CN1CCN(C2=Cc3ccccc3Sc3cc(F)ccc32)CC1	-3.76
COc1cc(/C=C(\C#N)c2nc(-c3ccccc3)cs2)cc(OC)c1OC	-4.12
Cc1cccc(NS(=O)(=O)c2cc(Cl)ccc2Cl)c1C	-4.91
CCOC(=O)c1c(C)[nH]c(C)c1S(=O)(=O)NCC(=O)Nc1nc2ccc(C)cc2s1	-3.61
CCOC(=O)c1c(NC(=O)CSc2ccccc2)sc2c1CCCC2	-5.5
CC(C)C(=O)Nc1ccc(NC(=O)c2ccc(F)cc2)cc1	-2.77
CCN(c1ccccc1)c1nc2nonc2n2cnnc12	0.0792
CCOc1ccc(-c2nc(-c3ccc(-n4cccc4)cc3)no2)cc1OCC	-0.403
Cc1cccc2c3c4n(c12)CC1COC4(CCC3)O1 (centres unmarked)	-10.7
CC1=C(C(=O)Nc2ccccn2)C(c2ccc(Cl)cc2)NC(S)=N1 (centres unmarked)	-0.339
O=C1c2ccccc2C(O)(c2ccc(Br)cc2)N1c1ccccc1 (centres unmarked)	-0.591
COc1ccc(NC(=O)C(=O)NCC(C)C)c(OC)c1	2.94
CCN(c1ccccc1)S(=O)(=O)c1ccc(NC(=O)COc2cc(C)ccc2C)cc1	3.21
Cc1nc2ccc(S(=O)(=O)NC(C(=O)N(C)Cc3ccccc3)c3ccccc3)cc2s1 (centres unmarked)	-0.522
CCC12CN3CC(C)(CN(C1)C3c1c(C)n(Cc3ccccc3)c3ccccc13)C2=O (centres unmarked)	-1.31
O=C(O)CC(c1ccccc1)N1C(=O)c2ccccc2C1=O (centres unmarked)	-11.5
CCOc1ccccc1NC(=O)COc1ccc(C)cc1	1.59
CC(C)(C)C[C@H](N[C@@H](c1ccc(F)cc1)C(F)(F)Sc1ccc(F)cc1)C(=O)NC1(C#N)CC1	-3.14
Clc1nc2c(-c3ccccc3)nnn2c2ccccc12	-3.48
CCN(CC)CCN(C)CCC1=C(C)CCCC1(C)C	1.37
O=C(CN(CCc1ccccc1)S(=O)(=O)c1ccccc1)N1CCOCC1	-9.24
CC1CCC(NC(=O)c2ccc(CNS(=O)(=O)c3ccc(F)cc3)cc2)CC1 (centres unmarked)	-2.72
Cc1ccc(C(=O)N2CCC(Cc3ccccc3)CC2)cc1S(=O)(=O)N1CCCCC1	-1.54

Compound	% Inhibition @ 10 uM [%]
O=C(NCCN1CCCC1)c1ccccc1Br	-1.78
COc1ccc(OC)c(C2/C(=C(\O)OCc3ccccc3)C(C)=Nc3nnnn32)c1 (centres unmarked)	2.93
O=C(Nc1sc2c(c1C(=O)N1CCCCC1)CCCC2)c1cccs1	10.9
N#CC1=C(N)Oc2oc3ccccc3c(=O)c2C1c1ccc(F)cc1 (centres unmarked)	-4.67
O=C(NCCc1ccccc1)C1CCN(C(=O)c2ccc(-n3ccc4ccccc43)s2)CC1	4.92
COc1ccc(Cn2c(SCc3ccc(C(=O)NC4CC4)cc3)nc3cccnc32)cc1	3.46
Cc1ccc(OCC(=O)Nc2ccc(S(=O)(=O)Nc3ccc(C)cc3C)cc2)cc1	-5.92
CCOC(=O)c1cc(-c2ccc(F)cc2)n(CC(=O)N2CCn3c2nc2ccccc23)c1C	1.5
CCN(Cc1ccccc1)Cc1cc(Br)ccc1O	-4.03
CC(=O)N1N=C2C3CCN(CC3)C2C1c1cccc2ccccc12 (centres unmarked)	5.21
CCn1c(SCC(=O)Nc2ccc(OC)cc2OC)nc2c1c(=O)n(C)c(=O)n2C	1.03
CCOCCCNC(=O)C1CCN(S(=O)(=O)N2CCCCC2)CC1	2.05
Cc1ccccc1-c1nc(CSCC(=O)NCc2ccc3c(c2)OCO3)c(C)o1	0.689
O=C(CSc1nc(O)cc(=O)n1C1CCCCC1)N1CCCCC1	3.62
Cc1ccc2oc(=O)c3cc(C(=O)NCCc4ccsc4)sc3c2c1	2.78
O=C(NCCNC(=O)c1ccccc1O)c1ccccc1O	4.55
CCSCCOC(=O)C1=C(C)NC(=O)NC1c1ccc(Cl)cc1Cl (centres unmarked)	-1.59
Cn1nc(CC(=O)O)c2ccccc2c1=O	0.279
N#C/C(=C/c1cccc(F)c1)c1nc(-c2ccc(Br)cc2)cs1	-8.11
O=C(O)c1csc(-n2cccc2)n1	-8.96
O=C(CCCn1sc2ccccc2c1=O)NCc1ccc2c(c1)OCO2	-4.68
CCSc1nc2sc3c(c2c(=O)n1CC)CC(C)(C)OC3	3.32
Cc1ccc2c(c1)c(=O)c1c3n2CCN(CC#N)C3CC1 (centres unmarked)	0.716
COC(=O)c1ccc(C2Oc3ccccc3C3=C2C(c2ccccc2F)n2ncnc2N3)cc1 (centres unmarked)	-5.19
CC1=CC(c2ccccc2)NC(S)=N1 (centres unmarked)	-5.59
CCN(CC)c1ccc(NC(=O)c2cnn(CC)c2)cc1	-4.43

Compound	% Inhibition @ 10 uM [%]
Cc1ccc(S(N)(=O)=O)c(C)c1-n1cnnn1	-5.53
CCC(=O)Nc1ccc(NCc2cc(Cl)cc(Cl)c2OC)cc1	-3.26
CNC(=O)C1CC(=O)N(Cc2ccc(F)cc2)/C(=N/c2cccc(C(F)(F)F)c2)S1 (centres unmarked)	-6.27
c1nc(CCNC2CCCCCCC2)c[nH]1	4.75
CCCCNC1=N/C(=C\c2ccco2)C(=O)N1c1ccccc1	2.62
O=C(NC1CCSC1=O)c1ccc(Cl)cc1Cl (centres unmarked)	-1.22
COc1cc(/C=C/c2nc(C#N)c(NCc3ccco3)o2)cc(OC)c1OC	-2.57
OC(CO/N=C(/c1ccc(Br)cc1)c1cccnc1)CN1CCN(c2ccccc2)CC1 (centres unmarked)	0.986
COCCCNC(=O)CN(C)S(=O)(=O)c1ccc(Cl)cc1	-2.29
CC(NC(=O)c1nc[nH]n1)c1ccc(-c2ccccc2)cc1 (centres unmarked)	-3.33
Cc1ccc(C2C(C#N)=C(N)OC3=C2C(=O)CCC3)c(C)c1 (centres unmarked)	-5.07
COc1ccccc1C1CC(=O)NC(C)=C1C(=O)OCC1CCCCC1 (centres unmarked)	0.8
Cc1oc(-c2ccc(C(=O)N3CCN(C)CC3)cc2)nc1COc1ccccc1	3.96
O=C(O)C1C2C=CC(C2)C1C(=O)NC1CCCCCC1 (centres unmarked)	-1.88
COc1ccc(C2C(C#N)=C(N)Oc3[nH]nc(C)c32)cc1COc1cccc(Cl)c1 (centres unmarked)	35.9
Cc1sc(C(=O)O)cc1-c1ccc(C(=O)N[C@@H](CC(C)C)C(=O)NCC#N)cc1	2.87
CCCCc1ccc(NC(=O)c2ccccc2C(=O)O)cc1	0.658
CC1=C(C(=O)OCC(F)(F)F)C(c2ccc(Cl)c(Cl)c2)NC(=O)N1 (centres unmarked)	1.6
Cc1nnc(N2CCCC(C(=O)NCCN3CCN(C)CC3)C2)c2nn(-c3ccccc3)c(C)c12 (centres unmarked)	4.56
O=C(CC(C(=O)O)C1CCCO1)NC1CCCCC1 (centres unmarked)	4.95
CCC(C)S(=O)(=O)c1oc(-c2cccs2)nc1S(=O)(=O)c1ccc(F)cc1 (centres unmarked)	-2.99
CCCO/C(O)=C1\C(C)=Nc2nnnn2C1c1ccccc1OCC (centres unmarked)	-3.53
Oc1ncnc2onc(-c3ccc(F)cc3)c12	3.54
